Laboratory results reported in the supplement of paper PMC11417369.
This is one part of the list.

Each sequence was assayed on PF3D7_0420300 AP2 domain 1 (GST-tagged) (assay: gcPBM binding intensity (ln(normalized median fluorescence intensity)); higher = stronger DNA binding).
Outline: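 For binding intensity, the highest Masliner-normalised natural-log median intensity across replicate spots of either probe orientation was taken. Protein bound to the array was stained with Alexa488 anti-GST antibody and scanned at 488 nm. The protein, GST-tagged P. falciparum DNA-binding domains from E. coli at about 25 μg on average, had been applied for 1 h to an Agilent 4 × 180k array of primer-extended double-stranded 36-bp intergenic genomic probes and negative controls.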

| Sequence | gcPBM binding intensity (ln) |
| --- | --- |
| AAAATAAAAGAAAAAAGTACAAAATCAGATTAATTA [XGTACX_site8413] | 9.41 |
| AATATATGTAATATATGTACTTAATTATATTTTAAT [XGTACX_site4382] | 9.07 |
| TATAAAATATAATTAGCACACATATATAAAATATAT [CACACA_site9355] | 9.33 |
| TTACCTTTATTGTATGAACACACATAAGCTGATACA [CACACA_site9334] | 9.29 |
| AAAAAAAAAAAAAGAGTGCAAACTATGATAATTTAA | 9.43 |
| ACATATGAATATAATACACACTTGTATTATTAATAT [CACACA_site8546] | 9.4 |
| AAAATTTAATATAATGCACACATAAAAAAAAAAAAA [CACACA_site7923] | 9.32 |
| CCATTTTTTTTATACGCACACGTCATACTTTTAAAA [CACACA_site4988] | 9.46 |
| TATATATATACATATTGTACATGTGTATATTTTTTT [XGTACX_site361] | 9.21 |
| TTAGTTATTAAAAAAAGTACATAAGTAGATATCATC [XGTACX_site8712] | 9.28 |
| GAATAATATGGACATACACACATATACATACATATA [CACACA_site2114] | 9.7 |
| TTATTTCATTCTTGAAGTACGTGAAAAATGAAAACA [XGTACX_site4089] | 8.96 |
| GGACAAGAATAGTGCACATGCAATGTTATTTTTTAT [TGCATGCA_site450] | 9.31 |
| CGTTTTAATAAGATCACACATATAATATATATATAT [CACACA_site5159] | 9.18 |
| ATTATAACCATATACACACCCATATAAATAAATATA [CACACA_site6926] | 9.73 |
| TATTAAATGGCCATTACATGCAATTATTTCTAATAA [TGCATGCA_site275] | 8.99 |
| ATATTAAATGTTATCACACACATAATTACTTCCATA [CACACA_site7160] | 9.66 |
| TCAAATATATAGAATACACACATGGATATAAGAAAT [CACACA_site4065] | 9.9 |
| ATTTAATTTGTTCTTACACACACATATATATATATT [CACACA_site8310] | 10.1 |

| Sequence | gcPBM binding intensity (ln) |
| --- | --- |
| TCATACGAAATATAAACACACATACAATAAATAAAT [CACACA_site5156] | 9.92 |
| ATAATATAAATACAAACACACAATTGCGTCCACATT [CACACA_site5039] | 9.79 |
| ATATATTTTATATAATGTACATAAACCGCACACATA [XGTACX_site6061] | 9.46 |
| TTTCAAATTTAATACACACACAAGTATATATCTATC [CACACA_site7782] | 9.69 |
| ATTTAAAAAAAAAAAAAAAAAAAAAAAAAAAGAAAA [CACACA_negctrl_site722] | 8.76 |
| TTTAATATTAGCATATGTACACAAATCACACGGAAA [XGTACX_site2473] | 9.42 |
| TATATTATGACCACCACACACCTATACACATAACAT [CACACA_site7199] | 9.62 |
| TAATCCTTTCAATATTGTACACATTTGTGTTAAGAA [XGTACX_site1275] | 9.04 |
| TTTTTTAACTGTATGATGTTATATTAAAAATAAAAA [GTGCAC_negctrl_site463] | 8.7 |
| AACGCACGAGGACACACACACATATTTATATTTATA [CACACA_site6608] | 9.87 |
| ATTTATATATAATATACACACATATAATACCCATAT [CACACA_site4548] | 9.76 |
| GGATTAATATATTTACCACACACCCATTTCGATTTT [CACACA_site9200] | 9.67 |
| ATCTTGAAGATTATTTGTACACAAAAGTTAAAATAT [XGTACX_site242] | 8.99 |
| ATATAAATATATTTTACACACAATGGAGAAAAAAAT [CACACA_site6450] | 9.74 |
| TATATAATTATTTATTGTACACTCAAATCGATAAGG [XGTACX_site3216] | 9.02 |
| TATTTATAAATATAAACACACAACATTCTATGCATA [CACACA_site3243] | 9.43 |
| AATGTATTATGTCTTCGTACACATAAATAAATAAAT [XGTACX_site4004] | 9.12 |
| TTGTTTATTTGTAAAGCTAACAAGAAATGTGAATAT [CACACA_negctrl_site931] | 9.14 |
| AACGAACACTATTACACACATACATACATATGTATG [CACACA_site1859] | 9.69 |

| Sequence | gcPBM binding intensity (ln) |
| --- | --- |
| TATACATAAAAATGATGTACATATAATATATATATA [XGTACX_site3863] | 9.18 |
| TTATTATTATAAAATTGTACTTGGTATATTAACATA [XGTACX_site5829] | 8.97 |
| ACCTTATTTAGTTATAGTACACAAAGTATTAAACAT [XGTACX_site8418] | 9.37 |
| TATATATATTTTTGTGTGCACTATAATATGAAAATA | 9.22 |
| GCGAATAATATGGACATACACACATATACATACATA [CACACA_site2115] | 9.67 |
| TTTTTTTTTTTCTTCACACACAGTACTACTATTTAT [CACACA_site2409] | 9.68 |
| TCATTTATTGAGGAATGTACACGTAAAATTTAATAA [XGTACX_site4086] | 9.19 |
| TTTTTTTTTTTTTTATGTACATATATATATTTTATT [XGTACX_site6915] | 9.38 |
| ATTTTTTTTTTTTTTTTCTTTTTTCTTCTTTTTTTT [CACACA_negctrl_site1223] | 9.47 |
| ATATATATTATAAAATGTACAAATGTTATATAAAAT [XGTACX_site4750] | 9.36 |
| AATTATAAATTGGACACACACATAAAAAATATGTAC [CACACA_site221] | 9.82 |
| TAAAGGAAATAAAAAACATGCAAATATGAAATATAT [TGCATGCA_site745] | 9.64 |
| ATACATAATAACTCCTGTACTTAAAAATGTATATAT [XGTACX_site1071] | 9.26 |
| TAAAAAAAAACATGTGCACACGTTTTATCTACATAA [CACACA_site2336] | 9.59 |
| TTACATATTATACGAAGTACGTACAAATACTTATAT [XGTACX_site8598] | 9.18 |
| TTTTTTTTTTTTTTTTTTAAACACCTCAAAAAAAAA [CACACA_negctrl_site807] | 8.41 |
| TTGCATTGTCCATGCGCACACACTACTAGAATAATA [CACACA_site3678] | 9.4 |
| AAAATATATATAACTTGTACATATACATACGTATAT [XGTACX_site4570] | 9.2 |
| TGTATATATCAATGTACACACATGCGTATGTTCGTT [CACACA_site7654] | 9.54 |
